Test results reported in the supplement of paper PMC12217912.
The list shows a part of the results. Sequences were assembled here from the parent chain. Inactive controls read about 0.05.

B1: TEV protease; numbered along this chain (parent)
chain: MGESLFKGPRDYNPISSSICHLTNESDGHTTSLYGIGFGPFIITNKHLFRRNNGTLVVQSLHGVFKVKDTTTLQQHLVDGRDMIIIRMPKDFPPFPQKLKFREPQREERICLVTTNFQTKSMSSMVSDTSCTFPSGDGIFWKHWIQTKDGQCGSPLVSTRDGFIVGIHSASNFTNTNNYFTSVPKNFMELLTNQEAQQWVSGWRLNADSVLWGGHKVFMVKPEEPFQPVKEATQL

Variants of: B1
Experiment: raw area under fraction-flipped curve 0-4 h after induction (AUC4h, not background-subtracted), DNA-recorder readout of cleavage of the substrate (dimensionless); higher = more cleavage of the substrate by the protease variant
Conditions: temperature: 34 °C; time window: 0-4 h after rhamnose induction
Procedure: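 In vivo DNA recorder in E. coli TOP10(DE3) ΔrhaA at 34 °C. Each TEVp single-site mutant (parent TEVp 0) is paired with a single-site variant of the 7-mer TEVs (canonical ENLYFQ|S). The substrate sits between flexible linkers in a Bxb1-sfGFP-TEVs-SsrA fusion, so cleavage stabilises Bxb1 and speeds flipping of a recombination array, read by NGS. The value is the raw area under the fraction-flipped curve over 0-4 h after rhamnose induction (AUC4h), with ≥20 reads per time point. It is not background-subtracted; inactive controls average about 0.047.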
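Note: Bxb1 expression induced with 0.2% (w/v) L-rhamnose at OD600 near 0.5, cultures sampled hourly, flipped fraction per protease–substrate barcode pair counted by paired-end Illumina sequencing.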

| Variant | area with substrate EALYFQS | area with substrate ECLYFQS | area with substrate EDLYFQS | area with substrate EFLYFQS | area with substrate EGLYFQS | area with substrate EILYFQS | area with substrate EQLYFQS | area with substrate ESLYFQS | area with substrate EWLYFQS | area with substrate EELYFQS | area with substrate EKLYFQS | area with substrate ELLYFQS | area with substrate EVLYFQS | area with substrate EHLYFQS | area with substrate EMLYFQS | area with substrate ERLYFQS | area with substrate ETLYFQS | area with substrate EPLYFQS | area with substrate EYLYFQS |
| --- | --- | --- | --- | --- | --- | --- | --- | --- | --- | --- | --- | --- | --- | --- | --- | --- | --- | --- | --- |
| MGESLFKGPRDYNPISSSICHLTNESDGHTTSLYGIGFGPFIITNKHLFRRNNGTLVVQSLHGVFKVKDTTTLQQHLVDGRDMIIIRMPKDFPPFPQKLKFREPQREERICLVTTNFQTKSMSSMVSDTSCTFPSGDGEFWKHWIQTKDGQCGSPLVSTRDGFIVGIHSASNFTNTNNYFTSVPKNFMELLTNQEAQQWVSGWRLNADSVLWGGHKVFMVKPEEPFQPVKEATQL [I139E] | 0.116 | 0.114 | 0.137 | 0.107 | 0.131 | 0.108 | 0.122 | 0.114 | 0.0963 |  |  |  |  |  |  |  |  |  |  |
| MGESLFKGPRDYNPISSSICHLTNESDGHTTSLYGIGFGPFIITNKHLFRRNNGTLVVQSLHGVFKVKDTTTLQQHLVDGRDMIIIRMPKDFPPFPQKLKFREPQREERICLVTTNFQTKSMSSMVSDTSCTFPSGDGIFWKHWIQTKDGQCGSPLVSTRDGFIVGIHSASNFTNTNNYFTSSPKNFMELLTNQEAQQWVSGWRLNADSVLWGGHKVFMVKPEEPFQPVKEATQL [V183S] | 0.101 | 0.0899 |  |  |  | 0.0783 | 0.0867 | 0.0872 | 0.0778 | 0.0701 | 0.113 | 0.09 | 0.0821 |  |  |  |  |  |  |
| MGESLFKGPRDFNPISSSICHLTNESDGHTTSLYGIGFGPFIITNKHLFRRNNGTLVVQSLHGVFKVKDTTTLQQHLVDGRDMIIIRMPKDFPPFPQKLKFREPQREERICLVTTNFQTKSMSSMVSDTSCTFPSGDGIFWKHWIQTKDGQCGSPLVSTRDGFIVGIHSASNFTNTNNYFTSVPKNFMELLTNQEAQQWVSGWRLNADSVLWGGHKVFMVKPEEPFQPVKEATQL [Y12F] | 0.108 | 0.105 |  |  | 0.109 | 0.0888 | 0.118 | 0.109 | 0.106 | 0.125 | 0.132 |  |  | 0.089 | 0.106 | 0.101 | 0.0972 |  |  |
| MGESLFKGPRDYNPISSSICHLTNESDGHTTSLYGIGFGPFIITNKHLFRRNNGTLVVQSLHGVFKVKMTTTLQQHLVDGRDMIIIRMPKDFPPFPQKLKFREPQREERICLVTTNFQTKSMSSMVSDTSCTFPSGDGIFWKHWIQTKDGQCGSPLVSTRDGFIVGIHSASNFTNTNNYFTSVPKNFMELLTNQEAQQWVSGWRLNADSVLWGGHKVFMVKPEEPFQPVKEATQL [D69M] | 0.114 | 0.079 |  | 0.118 | 0.1 | 0.0843 |  | 0.0775 |  | 0.0931 | 0.0948 | 0.0446 | 0.0627 |  | 0.0842 | 0.0958 | 0.134 | 0.0688 | 0.0698 |
| MGESLFKGPRDYNPISSSICHLTNESDGHTTSLYGIGFGPFIITNKHLFRRNNGTLDVQSLHGVFKVKDTTTLQQHLVDGRDMIIIRMPKDFPPFPQKLKFREPQREERICLVTTNFQTKSMSSMVSDTSCTFPSGDGIFWKHWIQTKDGQCGSPLVSTRDGFIVGIHSASNFTNTNNYFTSVPKNFMELLTNQEAQQWVSGWRLNADSVLWGGHKVFMVKPEEPFQPVKEATQL [V57D] | 0.108 | 0.125 |  |  |  | 0.107 | 0.125 | 0.117 |  |  | 0.105 |  |  |  |  |  | 0.112 |  | 0.137 |
| MGESLFKGPRDYNPISSSICHLTNESDGHTTSLYGIGFGPFIITNKHLFRRNNGTLVVQSLHGVFKVKDTTTLQQHLVDGRDMIIIRMPKDFPPFPQKLKFREPQREERICLVTTNFQTKSMSSMVSDTSCTFPSGDGIFWKHWIQTKDGQCGSPLVSTRDGFIVGIHSASNFTNTNNYFTSVPKNFMELLTNVEAQQWVSGWRLNADSVLWGGHKVFMVKPEEPFQPVKEATQL [Q194V] | 0.122 | 0.174 |  |  |  | 0.121 | 0.111 | 0.0974 | 0.112 |  | 0.172 |  |  |  |  |  |  |  |  |
| MGESLFKGPRDYNPISSSICHLTNESDGHTTSLYGIGFGPFIITNKHLFRRNNGTLVVQSLHGVFKVKDTTTLQQHLVDGRDMIIIRMPKDFPPFPQKLKFREPQREERICLVTTNFQTKSMSSMVSDTSCTFPSGDGIFWKHWIQTKDGQCGSPLVSTRDGFIVGIHSASNFTNTNNYFTSVPKNFMELLTNQEAQQWVSGWRLNADSVLWGGHKVFMVKPEEPFQPVKEATQA [L235A] | 0.148 | 0.11 |  | 0.0913 | 0.0909 |  | 0.12 | 0.132 |  |  | 0.104 | 0.0701 | 0.0877 | 0.0564 | 0.127 | 0.124 |  | 0.119 | 0.125 |
| MGESLFKGPRDYNPISSSICHLTNESDGHTTSLYGIGFGPFIITNKHLFRRNNGTLVVQSLHGVFKVKDTTTLQQHLVDGRDMIIIRMPKDFPPFPQKLKFREPQREERICLVTTNFQTKSMSSMVSDTSCTFPSGDGIFWKHWIQTKDGQCGSPLVSTRDGFIVGIHSASNFTNTNNYFTSVPKNWMELLTNQEAQQWVSGWRLNADSVLWGGHKVFMVKPEEPFQPVKEATQL [F187W] | 0.0782 | 0.0768 | 0.0887 |  | 0.0837 | 0.0714 | 0.0634 | 0.0895 |  | 0.0784 | 0.0824 |  | 0.0754 |  | 0.0794 | 0.0822 |  | 0.0845 |  |
| MGESLFKGPRDYNPISSSICHLTNESDGHTTSLYGIGFGPFIITNKHLFRRNNGTLVVQSLHGVFKVKDTTTLQQHLVDGRDMIIIRMPKDFPPFPQKLKFREPQREERICLVTTNFQTKSMSSMVSDTSCTFPSGDGIFWKHWIQTKDGQCGSPLVSTRDGFIVGIHSASNFTNTNNYFTSVPKNFMELLTNQEAQQWVSGWRLNADSVFWGGHKVFMVKPEEPFQPVKEATQL [L211F] | 0.102 | 0.114 |  |  | 0.0804 | 0.0788 | 0.163 | 0.116 | 0.0905 | 0.0966 |  | 0.0833 | 0.0835 |  | 0.109 | 0.103 |  | 0.0878 | 0.12 |
| MGESLFKGPRDYNPISSSICHLTNESDGHTTSLYGIGFGPFIITNKHLFRRNNGTLVVQSLHGVFKVKDMTTLQQHLVDGRDMIIIRMPKDFPPFPQKLKFREPQREERICLVTTNFQTKSMSSMVSDTSCTFPSGDGIFWKHWIQTKDGQCGSPLVSTRDGFIVGIHSASNFTNTNNYFTSVPKNFMELLTNQEAQQWVSGWRLNADSVLWGGHKVFMVKPEEPFQPVKEATQL [T70M] | 0.0574 | 0.116 | 0.109 |  |  |  |  | 0.0807 |  | 0.0985 |  | 0.0643 | 0.0849 |  |  |  |  |  | 0.122 |
